{"source": "PubChem BioAssay (NCATS)", "note": "Several values for one entry are separate records, joined by “and”; a condition that tells them apart may be missing. Equal values may be shown once. Inconclusive means that the source gave no clear call. Such entries were picked first, then a sample of the others. Potencies of inconclusive entries are doubtful fits and often do not repeat. Activity calls are given as the source filed them. The call rests on the fitted dose curve; in most records, active means well fitted inhibition curve with a large enough effect; inconclusive means small, poorly fitted or top-dose-only effect; inactive means flat fitted curve, though single readings scatter. Potency means the concentration at half of the fitted maximal effect; tags describe the fitted curve by direction and shape.", "data": [{"system": "Zika virus NS2B-NS3 protease", "assay": "Primary screen GU AMC qHTS for Zika virus inhibitors (AID 1347154); further: nearly all actives have a fitted effect of over 70% in size", "settings": "Zika NS2B-NS3 unlinked protease, AMC fluorogenic substrate; series mostly up to 54.1 µM", "summary_of_the_method": "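Unlinked Zika NS2B hydrophilic domain–NS3 protease complex at 25 nM in 10 mM Tris-HCl pH 8.0, 0.01% Tween 20, with an AMC peptide substrate. Fluorescence change (340/450 nm) over 15 min at room temperature, normalized to controls, fitted to 4-parameter Hill.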", "values": [{"smiles": "C[C@@H]1[C@@H](C(=O)C[C@H]2O[C@@H]3O[C@]4(C)CC[C@@H]5[C@H](C)CC[C@@H]([C@H]2C)[C@@]35OO4)O[C@@H]2O[C@]3(C)CC[C@H]4[C@H](C)CC[C@@H]1[C@@]24OO3", "Potency": "inactive"}, {"smiles": "N#CC(C#N)=Cc1ccc(O)c(O)c1", "Potency": "inconclusive: 21.2 µM [inhibitor, single point]"}, {"smiles": "Oc1cc(Cl)ccc1Oc1ccc(Cl)cc1Cl", "Potency": "inconclusive: 4.25 µM [inhibitor, full curve] and inconclusive: 28.2 µM [inhibitor, partial curve] and inconclusive: 18.9 µM [inhibitor, single point]"}, {"smiles": "Nc1ccccc1C(=O)O", "Potency": "inconclusive: 22.8 µM [inhibitor, partial curve]"}, {"smiles": "CC[C@@H](CO)NC(=O)[C@@H]1C=C2c3cccc4[nH]cc(c34)C[C@H]2N(C)C1", "Potency": "inconclusive: 31.6 µM [inhibitor, partial curve]"}, {"smiles": "O=c1[nH]c2cc(Cl)ccc2n1C1CCNCC1", "Potency": "inconclusive: 17.8 µM [inhibitor, partial curve]"}, {"smiles": "NCCc1cc(O)c(O)cc1O", "Potency": "active: 4.55 µM and active: 21.2 µM"}, {"smiles": "COc1ccc2c(C(=O)c3ccc(Cl)cc3)c(C)n(CC(=O)O)c2c1", "Potency": "inactive"}, {"smiles": "CC[N+]1(CCOC(=O)C(O)(c2ccccc2)c2ccccc2)CCCCC1", "Potency": "inactive"}, {"smiles": "O=C(Nc1ccc(Br)cc1)c1cc(Br)cc(Br)c1O", "Potency": "active: 35.5 µM"}, {"smiles": "O=C1C(I)=CC(=C(c2cc(I)c(O)c(I)c2)c2ccccc2C(=O)O)C=C1I", "Potency": "active: 12.8 µM"}, {"smiles": "CCCCCCCCc1ccc(O)cc1", "Potency": "inconclusive: 14.1 µM [inhibitor, partial curve]"}, {"smiles": "CC=C(C)C(=O)O[C@H]1C(C)=C2[C@@H]3OC(=O)[C@@](C)(O)[C@@]3(O)[C@@H](OC(=O)CCC)C[C@](C)(OC(C)=O)[C@@H]2[C@@H]1OC(=O)CCCCCCC", "Potency": "inconclusive: 1.19 µM [inhibitor, full curve, poor fit]"}, {"smiles": "Cc1sc2c(c1C)C(c1ccc(Cl)cc1)=N[C@@H](CC(=O)OC(C)(C)C)c1nnc(C)n1-2", "Potency": "inconclusive: 24.1 µM [inhibitor, partial curve, poor fit]"}, {"smiles": "O=C(CCCN1CCC(n2c(=O)[nH]c3ccccc32)CC1)c1ccc(F)cc1", "Potency": "inactive"}, {"smiles": "c1ccc2nc(N3CCNCC3)ccc2c1", "Potency": "inconclusive: 2.82 µM [inhibitor, full curve, poor fit]"}, {"smiles": "CCCN1CCC[C@@H]2Cc3[nH]ncc3C[C@H]21", "Potency": "inactive"}]}]}
